The densities may have been worked out from excess volumes.
Assay: xn = mol fraction of the nth substance listed
Details: 100 kPa

CC(=O)c1ccccc1 + CCCC[n+]1ccn(C)c1.O=S(=O)([N-]S(=O)(=O)C(F)(F)F)C(F)(F)F
mass density [kg/m3]
Details	x1 = 0.1001	x1 = 0.2301	x1 = 0.2995	x1 = 0.4002	x1 = 0.5003	x1 = 0.6014	x1 = 0.7002	x1 = 0.8003	x1 = 0.9
298.15 K	1418.9	1394.6	1379.7	1354.4	1324.4	1287.7	1243.7	1187.8	1116.4
318.15 K	1400.9	1376.5	–	1336.3	–	1269.8	1225.7	1169.9	1098.8
348.15 K	–	–	1334.1	1308.9	1279.2	1242.5	1198.7	1143.1	1072.3

COc1ccccc1 + CCCC[n+]1ccn(C)c1.O=S(=O)([N-]S(=O)(=O)C(F)(F)F)C(F)(F)F
mass density [kg/m3]
Details	x1 = 0.1018	x1 = 0.2008	x1 = 0.3001	x1 = 0.4008	x1 = 0.5008	x1 = 0.6001	x1 = 0.7003	x1 = 0.8002	x1 = 0.9
298.15 K	1422.8	1405.2	–	1359.4	–	–	1245.4	1184.5	1103.7
318.15 K	1403.4	1386	1365.5	1340.6	1310.6	1273.8	–	–	1085.2
348.15 K	1375.1	–	1336.6	1311.9	1282.2	–	1199	1138.5	1057

Source: a compilation of properties of binary mixtures (doi:10.1016/j.jct.2013.04.008)
